In a collection of fitness landscapes (doi:10.1126/science.1257360):
The list shows a part of the results.

B1: PhoQ; a variant is named by its letters at X, in order, P23837 (parent)
chain: MKKLLRLFFPLSLRVRFLLATAAVVLVLSLAYGMVALIGYSVSFDKTTFRLLRGESNLFYTLAKWENNKLHVELPENIDKQSPTMTLIYDENGQLLWAQRDVPWLMKMIQPDWLKSNGFHEIEADVNDTSLLLSGDHSIQQQLQEVREDDDDAEMTHSVAVNVYPATSRMPKLTIVVVDTIPVELKSSYMVWSWFIYVLSANLLLVIPLLWVAAWWSLRPIEALAKEVRELEEHNRELLNPATTRELTSLVRNLNRLLKSERERYDKYRTTLTDLTHSLKTPLXXLQXXLRSLRSEKMSVSDAEPVMLEQISRISQQIGYYLHRASMRGGTLLSRELHPVAPLLDNLTSALNKVYQRKGVNISLDISPEISFVGEQNDFVEVMGNVLDNACKYCLEFVEISARQTDEHLYIVVEDDGPGIPLSKREVIFDRGQRVDTLRPGQGVGLAVAREITEQYEGKIVAGESMLGGARMEVIFGRQHSAPKDE

Variants of: B1
Test: enrichment ratio after two sorts for PhoP signalling (ratio (wild type AVST 3.29)); higher = more functional
Settings: with PhoP (E. coli)

| Variant | enrichment ratio |
| --- | --- |
| GILE | 4.81 |
| SIDN | ≤ 0.25 |
| RNCI | ≤ 0.25 |
| HSDR | ≤ 0.25 |
| IVHF | ≤ 0.25 |
| YKVV | ≤ 0.25 |
| FECG | 30.4 |
| PRVN | ≤ 0.25 |
| DMIP | ≤ 0.25 |
| SRCA | ≤ 0.25 |
| KVCC | ≤ 0.25 |
| ITCD | ≤ 0.25 |
| ALFI | ≤ 0.25 |
| YEKG | ≤ 0.25 |
| GCVP | ≤ 0.25 |
| MGYT | 10.8 |
| KNQC | ≤ 0.25 |
| KKFE | ≤ 0.25 |
| DAHC | ≤ 0.25 |
| EWLH | ≤ 0.25 |
| GCCP | ≤ 0.25 |
| AQIY | 24 |
| FIPQ | ≤ 0.25 |
| DCEA | ≤ 0.25 |

| Variant | enrichment ratio |
| --- | --- |
| PEFM | ≤ 0.25 |
| QPRT | ≤ 0.25 |
| WTIG | ≤ 0.25 |
| KPVV | ≤ 0.25 |
| CLII | ≤ 0.25 |
| PLQC | ≤ 0.25 |
| VVLY | ≤ 0.25 |
| MRNK | ≤ 0.25 |
| SADV | ≤ 0.25 |
| YFHD | ≤ 0.25 |
| YICR | ≤ 0.25 |
| WLVF | ≤ 0.25 |
| DKCW | ≤ 0.25 |
| RRQL | ≤ 0.25 |
| KIGY | ≤ 0.25 |
| VEWT | ≤ 0.25 |
| WVRR | ≤ 0.25 |
| DHDE | ≤ 0.25 |
| KLRW | ≤ 0.25 |
| ERLI | ≤ 0.25 |
| DERV | ≤ 0.25 |
| PSFP | ≤ 0.25 |
| YWEF | ≤ 0.25 |
| MLII | ≤ 0.25 |

| Variant | enrichment ratio |
| --- | --- |
| PFHT | ≤ 0.25 |
| PACS | ≤ 0.25 |
| FAAE | ≤ 0.25 |
| YVMP | ≤ 0.25 |
| KDIK | ≤ 0.25 |
| NAYN | ≤ 0.25 |
| TLIP | ≤ 0.25 |
| PHQI | ≤ 0.25 |
| SDYY | ≤ 0.25 |
| NYDR | ≤ 0.25 |
| NTAP | ≤ 0.25 |
| FFWM | ≤ 0.25 |
| YDGK | ≤ 0.25 |
| HRYG | ≤ 0.25 |
| AASF | 10.1 |
| VLQR | ≤ 0.25 |
| AKNY | ≤ 0.25 |
| VVEV | ≤ 0.25 |
| YCIT | ≤ 0.25 |
| TFII | ≤ 0.25 |
| WPMV | ≤ 0.25 |
| SEVA | 10.3 |
| SCWC | ≤ 0.25 |
| NDDI | ≤ 0.25 |

| Variant | enrichment ratio |
| --- | --- |
| PVLL | ≤ 0.25 |
| RPSH | ≤ 0.25 |
| ADIV | 12.5 |
| FWRP | ≤ 0.25 |
| SEHA | ≤ 0.25 |
| SHQD | ≤ 0.25 |
| LQPM | ≤ 0.25 |
| EQAM | ≤ 0.25 |
| FYPS | ≤ 0.25 |
| YWNK | ≤ 0.25 |
| AEMY | 20.4 |
| NWKP | ≤ 0.25 |
| PYIP | ≤ 0.25 |
| MTLQ | 10.8 |
| HMMK | ≤ 0.25 |
| PFLF | ≤ 0.25 |
| QFIR | ≤ 0.25 |
| NSHN | ≤ 0.25 |
| VVEF | ≤ 0.25 |
| RYWQ | ≤ 0.25 |
| QSVF | ≤ 0.25 |
| EIAA | ≤ 0.25 |
| MPKE | ≤ 0.25 |
| QLTR | ≤ 0.25 |

| Variant | enrichment ratio |
| --- | --- |
| LQQY | ≤ 0.25 |
| ECHI | ≤ 0.25 |
| ECDS | ≤ 0.25 |
| NFNI | ≤ 0.25 |
| RQVG | ≤ 0.25 |
| LRHF | ≤ 0.25 |
| SANT | ≤ 0.25 |
| RPDS | ≤ 0.25 |
| YPII | ≤ 0.25 |
| TIEL | 1.01 |
| RCPY | ≤ 0.25 |
| FFAQ | ≤ 0.25 |
| ELYD | ≤ 0.25 |
| RPLP | ≤ 0.25 |
| HSIS | ≤ 0.25 |
| EHCY | ≤ 0.25 |
| YCAR | ≤ 0.25 |
| GQDF | ≤ 0.25 |
| WMHR | ≤ 0.25 |
| LLTE | ≤ 0.25 |
| PKYE | ≤ 0.25 |
| MFNL | ≤ 0.25 |
| RTVK | ≤ 0.25 |
| PCDR | ≤ 0.25 |

| Variant | enrichment ratio |
| --- | --- |
| RINS | ≤ 0.25 |
| CFWI | ≤ 0.25 |
| TEYP | ≤ 0.25 |
| WHSI | ≤ 0.25 |
| MWFN | ≤ 0.25 |
| HNNS | ≤ 0.25 |
| IWLC | ≤ 0.25 |
| PNDG | ≤ 0.25 |
| TKRK | ≤ 0.25 |
| GETM | ≤ 0.25 |
| RRTT | ≤ 0.25 |
| QPAL | ≤ 0.25 |
| SWDK | ≤ 0.25 |
| DDVR | ≤ 0.25 |
| QPYL | ≤ 0.25 |
| GLRQ | ≤ 0.25 |
| QEAK | ≤ 0.25 |
| WEGI | ≤ 0.25 |
| AGDF | ≤ 0.25 |
| PRGA | ≤ 0.25 |
| KKPW | ≤ 0.25 |
| MDSR | ≤ 0.25 |
| TTYF | 3.17 |
| QQKW | ≤ 0.25 |

| Variant | enrichment ratio |
| --- | --- |
| TEIH | 11.4 |
| PNRD | ≤ 0.25 |
| MYIA | ≤ 0.25 |
| LYRH | ≤ 0.25 |
| DKDA | ≤ 0.25 |
| GVFW | ≤ 0.25 |
| NDIC | ≤ 0.25 |
| PISY | ≤ 0.25 |
| AADL | ≤ 0.25 |
| VMSG | ≤ 0.25 |
| DDRG | ≤ 0.25 |
| QGCS | ≤ 0.25 |
| TECG | 15.7 |
| RWLD | ≤ 0.25 |
| FSLA | 6.09 |
| VLFF | ≤ 0.25 |
| LNWD | ≤ 0.25 |
| AWPR | ≤ 0.25 |
| FMIH | ≤ 0.25 |
| MLMS | ≤ 0.25 |
| PHTC | ≤ 0.25 |
| KRPV | ≤ 0.25 |
| IAIP | ≤ 0.25 |
| MLWN | ≤ 0.25 |

| Variant | enrichment ratio |
| --- | --- |
| NPCR | ≤ 0.25 |
| SQLH | 8.37 |
| HTQG | ≤ 0.25 |
| GNDR | ≤ 0.25 |
| GELF | 9.93 |
| RFCT | ≤ 0.25 |
| ICIW | ≤ 0.25 |
| IMWV | ≤ 0.25 |
| TFCE | ≤ 0.25 |
| SCSP | ≤ 0.25 |
| AMFW | ≤ 0.25 |
| AEAF | 5 |
| WYFM | ≤ 0.25 |
| YHSW | ≤ 0.25 |
| DDLC | ≤ 0.25 |
| IWHR | ≤ 0.25 |
| TPPY | ≤ 0.25 |
| FCCL | 5.06 |
| HKHS | ≤ 0.25 |
| DIYW | ≤ 0.25 |
| SIVE | 0.728 |
| NMGV | ≤ 0.25 |
| YFHF | ≤ 0.25 |
| TKLF | 18 |

| Variant | enrichment ratio |
| --- | --- |
| FLMM | 1.72 |
| STSQ | 8.16 |
| NWYD | ≤ 0.25 |
| LIME | ≤ 0.25 |
| TQGC | 0.772 |
| DPRE | ≤ 0.25 |
| WCKS | ≤ 0.25 |
| VMCS | ≤ 0.25 |
| YYVF | ≤ 0.25 |
| SRTM | 1.44 |
| NYSC | ≤ 0.25 |
| DYFN | ≤ 0.25 |
| FECS | 19.8 |
| QTDD | ≤ 0.25 |
| IHGP | ≤ 0.25 |
| WDTG | ≤ 0.25 |
| SMKN | ≤ 0.25 |
| NPMS | ≤ 0.25 |
| EGKQ | ≤ 0.25 |
| QPME | ≤ 0.25 |
| PIQG | ≤ 0.25 |
| RQNT | ≤ 0.25 |
| QHFE | ≤ 0.25 |
| FRMC | ≤ 0.25 |

| Variant | enrichment ratio |
| --- | --- |
| MQDC | ≤ 0.25 |
| ENFC | ≤ 0.25 |
| WYVF | ≤ 0.25 |
| RVKS | ≤ 0.25 |
| YRNM | ≤ 0.25 |
| EFIM | ≤ 0.25 |
| FLNS | ≤ 0.25 |
| EKYF | ≤ 0.25 |
| MAEY | ≤ 0.25 |
| MFEG | ≤ 0.25 |
| YSMK | ≤ 0.25 |
| EHAA | ≤ 0.25 |
| RSQG | ≤ 0.25 |
| REHV | ≤ 0.25 |
| DRFW | ≤ 0.25 |
| MHCH | ≤ 0.25 |
| HLSS | ≤ 0.25 |
| TICF | ≤ 0.25 |
| ADYY | ≤ 0.25 |
| DGCT | ≤ 0.25 |
| ETPI | ≤ 0.25 |
| IPFL | ≤ 0.25 |
| PSSP | ≤ 0.25 |
| SNDL | ≤ 0.25 |

| Variant | enrichment ratio |
| --- | --- |
| VYGT | ≤ 0.25 |
| MNSF | 0.711 |
| WGWG | ≤ 0.25 |
| RVLV | ≤ 0.25 |
| YCER | ≤ 0.25 |
| DECT | ≤ 0.25 |
| GDCM | 8.58 |
| PALD | ≤ 0.25 |
| MKDM | ≤ 0.25 |
| SIYK | ≤ 0.25 |
| YKVS | ≤ 0.25 |
| YDYV | ≤ 0.25 |
| DFSK | ≤ 0.25 |
| TWKA | ≤ 0.25 |
| PWRI | ≤ 0.25 |
| PCTD | ≤ 0.25 |
| GHYV | ≤ 0.25 |
| HLWQ | ≤ 0.25 |
| DVMY | ≤ 0.25 |
| ADAT | ≤ 0.25 |
| WYHG | ≤ 0.25 |
| SDVD | ≤ 0.25 |
| SHKM | ≤ 0.25 |
| AGGF | 2.48 |

| Variant | enrichment ratio |
| --- | --- |
| AECW | 2.86 |
| QATH | ≤ 0.25 |
| QYNE | ≤ 0.25 |
| RSTL | ≤ 0.25 |
| WFDN | ≤ 0.25 |
| ARMI | ≤ 0.25 |
| WKDN | ≤ 0.25 |
| LAQM | ≤ 0.25 |
| LRIN | ≤ 0.25 |
| NHIN | ≤ 0.25 |
| ILTQ | ≤ 0.25 |
| FQGP | ≤ 0.25 |
| DPDY | ≤ 0.25 |
| NPCS | ≤ 0.25 |
| DGIF | ≤ 0.25 |
| GHVS | ≤ 0.25 |
| FKAR | ≤ 0.25 |
| PSQE | ≤ 0.25 |
| PTQP | ≤ 0.25 |
| VCIC | ≤ 0.25 |
| KDVV | ≤ 0.25 |
| WIQL | ≤ 0.25 |
| MKRF | ≤ 0.25 |
| PEIW | ≤ 0.25 |

| Variant | enrichment ratio |
| --- | --- |
| QYQD | ≤ 0.25 |
| WLRC | ≤ 0.25 |
| NCKA | ≤ 0.25 |
| VHGN | ≤ 0.25 |
| WYRI | ≤ 0.25 |
| IGWM | ≤ 0.25 |
| YHIR | ≤ 0.25 |
| QHVV | ≤ 0.25 |
| LFAY | ≤ 0.25 |
| NTAE | ≤ 0.25 |
| HDKN | ≤ 0.25 |
| MRYV | ≤ 0.25 |
| PVWL | ≤ 0.25 |
| WVRL | ≤ 0.25 |
| LRKA | ≤ 0.25 |
| YWEW | ≤ 0.25 |
| MQWF | ≤ 0.25 |
| DREV | ≤ 0.25 |
